We go through 31 molecules from publication PMC9911399, “Two distinct binding modes provide the RNA-binding protein RbFox with extraordinary sequence specificity”.

Substitutions are numbered along the chain they refer to; changes in the protein carry UniProt numbers. Some of the results follow.

Sequences and labels used below:
T1: RBFOX1 RRM RbFoxmut (Fox-RRM*) (Homo sapiens, UniProt Q9NWB1 109-208, R118D;E147R;N151S;E152T)
T1 sequence: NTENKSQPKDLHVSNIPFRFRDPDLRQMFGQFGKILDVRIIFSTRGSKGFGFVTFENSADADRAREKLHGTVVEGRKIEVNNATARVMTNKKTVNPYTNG

B1: GGCGCCA (DNA:RNA)
RNA: GGGAGACCGGAAUUCAGAUUGUCCGGCGCCAUUAAAUCCCGUCGUAGCCACCA
DNA 1: CAATCTGAATTCCGGTCTCCC
DNA 2: TGGTGGCTACGACGGGATT
B2: AGUCCCC (DNA:RNA)
RNA: B1 RNA with G25A, C27U, G28C, A31C
DNA 1: CAATCTGAATTCCGGTCTCCC
DNA 2: TGGTGGCTACGACGGGATT
B3: AAGGAGC (DNA:RNA)
RNA: B1 RNA with G25A, G26A, C27G, C29A, C30G, A31C
DNA 1: CAATCTGAATTCCGGTCTCCC
DNA 2: TGGTGGCTACGACGGGATT
B4: GCUUAAA (DNA:RNA)
RNA: B1 RNA with G26C, C27U, G28U, C29A, C30A
DNA 1: CAATCTGAATTCCGGTCTCCC
DNA 2: TGGTGGCTACGACGGGATT
B5: UACCACA (DNA:RNA)
RNA: B1 RNA with G25U, G26A, G28C, C29A
DNA 1: CAATCTGAATTCCGGTCTCCC
DNA 2: TGGTGGCTACGACGGGATT
B6: CGAACGA (DNA:RNA)
RNA: B1 RNA with G25C, C27A, G28A, C30G
DNA 1: CAATCTGAATTCCGGTCTCCC
DNA 2: TGGTGGCTACGACGGGATT
B7: UAUCUCG (DNA:RNA)
RNA: B1 RNA with G25U, G26A, C27U, G28C, C29U, A31G
DNA 1: CAATCTGAATTCCGGTCTCCC
DNA 2: TGGTGGCTACGACGGGATT
B8: ACUGGAU (DNA:RNA)
RNA: B1 RNA with G25A, G26C, C27U, C29G, C30A, A31U
DNA 1: CAATCTGAATTCCGGTCTCCC
DNA 2: TGGTGGCTACGACGGGATT
B9: AUCGACC (DNA:RNA)
RNA: B1 RNA with G25A, G26U, C29A, A31C
DNA 1: CAATCTGAATTCCGGTCTCCC
DNA 2: TGGTGGCTACGACGGGATT
B10: GUCCGAA (DNA:RNA)
RNA: B1 RNA with G26U, G28C, C29G, C30A
DNA 1: CAATCTGAATTCCGGTCTCCC
DNA 2: TGGTGGCTACGACGGGATT
B11: GAAUUUC (DNA:RNA)
RNA: B1 RNA with G26A, C27A, G28U, C29U, C30U, A31C
DNA 1: CAATCTGAATTCCGGTCTCCC
DNA 2: TGGTGGCTACGACGGGATT
B12: CAUCCUA (DNA:RNA)
RNA: B1 RNA with G25C, G26A, C27U, G28C, C30U
DNA 1: CAATCTGAATTCCGGTCTCCC
DNA 2: TGGTGGCTACGACGGGATT
B13: CCGACCG (DNA:RNA)
RNA: B1 RNA with G25C, G26C, C27G, G28A, A31G
DNA 1: CAATCTGAATTCCGGTCTCCC
DNA 2: TGGTGGCTACGACGGGATT
B14: CGCCUUA (DNA:RNA)
RNA: B1 RNA with G25C, G28C, C29U, C30U
DNA 1: CAATCTGAATTCCGGTCTCCC
DNA 2: TGGTGGCTACGACGGGATT
B15: CGAGUCA (DNA:RNA)
RNA: B1 RNA with G25C, C27A, C29U
DNA 1: CAATCTGAATTCCGGTCTCCC
DNA 2: TGGTGGCTACGACGGGATT
B16: AGGCUUU (DNA:RNA)
RNA: B1 RNA with G25A, C27G, G28C, C29U, C30U, A31U
DNA 1: CAATCTGAATTCCGGTCTCCC
DNA 2: TGGTGGCTACGACGGGATT
B17: CGUACCG (DNA:RNA)
RNA: B1 RNA with G25C, C27U, G28A, A31G
DNA 1: CAATCTGAATTCCGGTCTCCC
DNA 2: TGGTGGCTACGACGGGATT
B18: CGGGGUG (DNA:RNA)
RNA: B1 RNA with G25C, C27G, C29G, C30U, A31G
DNA 1: CAATCTGAATTCCGGTCTCCC
DNA 2: TGGTGGCTACGACGGGATT
B19: AGAACAA (DNA:RNA)
RNA: B1 RNA with G25A, C27A, G28A, C30A
DNA 1: CAATCTGAATTCCGGTCTCCC
DNA 2: TGGTGGCTACGACGGGATT
B20: ACUACCA (DNA:RNA)
RNA: B1 RNA with G25A, G26C, C27U, G28A
DNA 1: CAATCTGAATTCCGGTCTCCC
DNA 2: TGGTGGCTACGACGGGATT
B21: CAGCCUU (DNA:RNA)
RNA: B1 RNA with G25C, G26A, C27G, G28C, C30U, A31U
DNA 1: CAATCTGAATTCCGGTCTCCC
DNA 2: TGGTGGCTACGACGGGATT
B22: GUGGAGA (DNA:RNA)
RNA: B1 RNA with G26U, C27G, C29A, C30G
DNA 1: CAATCTGAATTCCGGTCTCCC
DNA 2: TGGTGGCTACGACGGGATT
B23: CCCCAAC (DNA:RNA)
RNA: B1 RNA with G25C, G26C, G28C, C29A, C30A, A31C
DNA 1: CAATCTGAATTCCGGTCTCCC
DNA 2: TGGTGGCTACGACGGGATT
B24: CUGCUGC (DNA:RNA)
RNA: GGGAGACCGGAAUUCAGAUUGUCCCUGCUGCUUAAAUCCCGUCGUAGCCACCA
DNA 1: CAATCTGAATTCCGGTCTCCC
DNA 2: TGGTGGCTACGACGGGATT
B25: CCCGAGU (DNA:RNA)
RNA: B24 RNA with U26C, G27C, C28G, U29A, C31U
DNA 1: CAATCTGAATTCCGGTCTCCC
DNA 2: TGGTGGCTACGACGGGATT
B26: CACCACU (DNA:RNA)
RNA: B24 RNA with U26A, G27C, U29A, G30C, C31U
DNA 1: CAATCTGAATTCCGGTCTCCC
DNA 2: TGGTGGCTACGACGGGATT
B27: UGAAGUU (DNA:RNA)
RNA: B1 RNA with G25U, C27A, G28A, C29G, C30U, A31U
DNA 1: CAATCTGAATTCCGGTCTCCC
DNA 2: TGGTGGCTACGACGGGATT
B28: UAAUCUA (DNA:RNA)
RNA: B1 RNA with G25U, G26A, C27A, G28U, C30U
DNA 1: CAATCTGAATTCCGGTCTCCC
DNA 2: TGGTGGCTACGACGGGATT
B29: CAUCAGA (DNA:RNA)
RNA: B24 RNA with U26A, G27U, U29A, C31A
DNA 1: CAATCTGAATTCCGGTCTCCC
DNA 2: TGGTGGCTACGACGGGATT
B30: CUGGGGA (DNA:RNA)
RNA: B24 RNA with C28G, U29G, C31A
DNA 1: CAATCTGAATTCCGGTCTCCC
DNA 2: TGGTGGCTACGACGGGATT
B31: AGACAAC (DNA:RNA)
RNA: B24 RNA with C25A, U26G, G27A, U29A, G30A
DNA 1: CAATCTGAATTCCGGTCTCCC
DNA 2: TGGTGGCTACGACGGGATT

The test has as its target T1, RBFOX1 RRM RbFoxmut (Fox-RRM*). In words: EMSA; HiTS-Eq, 1 nM pool, 10 min; buffer printed only for the single-RNA assays: 10 mM Tris pH 7.5, 150 mM NaCl, 3.4 mM EDTA, 0.001% NP-40, 30 C. The following applies: tags: His6 N-terminal (pET28a); label: 5' 32P. The gist of the method: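 A pool of RNA with 7 randomized nucleotides, 5′-radiolabelled and with DNA-annealed flanks, was equilibrated at 1 nM for 10 min in 50 µL with purified RbFox RRM, wild type or mutant, across increasing protein concentrations. Free RNA was separated by 8% native PAGE, excised, reverse-transcribed, barcoded by PCR and sequenced. Relative association constants were obtained from read-count changes of each RNA species versus the control reaction and normalised to the cognate motif.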
For the molecule B1, the binding signal was 0.0793 KA relative to UGCAUGU.

Take B2: the binding signal was 0.0498 KA relative to UGCAUGU.

For B3, the binding signal is 0.101 KA relative to UGCAUGU.

Turning to B4, the binding signal was 0.0919 KA relative to UGCAUGU.

Take B5: the binding signal is 0.0966 KA relative to UGCAUGU.

On to B6, for which the binding signal was 0.14 KA relative to UGCAUGU.

Regarding B7, the binding signal is 0.0877 KA relative to UGCAUGU.

Turning to B8, the binding signal is 0.0755 KA relative to UGCAUGU.

With B9, the binding signal was 0.0755 KA relative to UGCAUGU.

Regarding B10, the binding signal was 0.0703 KA relative to UGCAUGU.

For B11, the binding signal is 0.0518 KA relative to UGCAUGU.

On to B12, for which the binding signal was 0.109 KA relative to UGCAUGU.

For the molecule B13, the binding signal is 0.102 KA relative to UGCAUGU.

Consider B14, for which the binding signal is 0.132 KA relative to UGCAUGU.

Consider B15, for which the binding signal is 0.0837 KA relative to UGCAUGU.

B16: the binding signal is 0.0641 KA relative to UGCAUGU.

For the molecule B17, the binding signal was 0.122 KA relative to UGCAUGU.

For B18, the binding signal is 0.316 KA relative to UGCAUGU.

On to B19, for which the binding signal is 0.0614 KA relative to UGCAUGU.

Regarding B20, the binding signal was 0.077 KA relative to UGCAUGU.

In the case of B21, the binding signal is 0.0828 KA relative to UGCAUGU.

With B22, the binding signal was 0.118 KA relative to UGCAUGU.

Consider B23, for which the binding signal is 0.0788 KA relative to UGCAUGU.

For B24, the binding signal was 0.126 KA relative to UGCAUGU.

Consider B25, for which the binding signal was 0.094 KA relative to UGCAUGU.

B26: the binding signal is 0.0882 KA relative to UGCAUGU.

Consider B27, for which the binding signal is 0.0793 KA relative to UGCAUGU.

Take B28: the binding signal was 0.0413 KA relative to UGCAUGU.

In the case of B29, the binding signal is 0.0633 KA relative to UGCAUGU.

For B30, the binding signal was 0.0977 KA relative to UGCAUGU.

Regarding B31, the binding signal was 0.0526 KA relative to UGCAUGU.
